Test results as given in the supplement of paper PMC3334620.
Over roughly 33,000 sequences, “E-score (-0.5 to 0.5)” has its median near -0.021; the highest 2% begin near 0.32. This is one part of the list.

target: T1, Zap1 (UniProt P47043); experiment: PBM E-score (8-mer binding enrichment) (E-score (-0.5 to 0.5)); higher = stronger / more preferred TF binding; most listed sequences are background and not binding sites; conditions: protein concentration: 200 nM; construct: GST-full length
T1 sequence: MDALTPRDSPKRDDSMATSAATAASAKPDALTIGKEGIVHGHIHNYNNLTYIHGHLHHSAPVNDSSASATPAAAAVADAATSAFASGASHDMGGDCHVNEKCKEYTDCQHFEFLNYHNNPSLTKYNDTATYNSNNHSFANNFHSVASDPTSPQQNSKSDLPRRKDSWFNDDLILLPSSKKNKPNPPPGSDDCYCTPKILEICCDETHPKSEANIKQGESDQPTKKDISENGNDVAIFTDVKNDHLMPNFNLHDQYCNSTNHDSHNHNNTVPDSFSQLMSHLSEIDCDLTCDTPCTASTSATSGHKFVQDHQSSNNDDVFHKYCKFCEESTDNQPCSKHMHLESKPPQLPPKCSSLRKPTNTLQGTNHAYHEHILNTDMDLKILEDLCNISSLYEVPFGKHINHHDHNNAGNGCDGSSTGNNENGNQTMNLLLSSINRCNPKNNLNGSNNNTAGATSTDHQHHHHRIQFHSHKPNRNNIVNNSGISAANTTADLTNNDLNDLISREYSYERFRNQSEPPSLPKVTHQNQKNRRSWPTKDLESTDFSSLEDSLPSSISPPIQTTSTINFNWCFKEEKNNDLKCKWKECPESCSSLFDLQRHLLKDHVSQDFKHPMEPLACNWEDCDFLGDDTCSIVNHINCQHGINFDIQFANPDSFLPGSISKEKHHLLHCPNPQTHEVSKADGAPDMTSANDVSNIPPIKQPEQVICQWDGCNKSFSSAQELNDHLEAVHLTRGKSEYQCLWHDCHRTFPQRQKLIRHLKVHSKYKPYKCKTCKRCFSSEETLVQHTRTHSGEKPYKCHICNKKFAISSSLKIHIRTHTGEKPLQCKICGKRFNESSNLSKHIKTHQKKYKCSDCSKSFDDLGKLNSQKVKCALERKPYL
Method: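 Universal 'all 10-mer' protein binding microarrays (Agilent AMADID 015681) probed with GST-tagged S. cerevisiae TFs (full-length or DBD) made by in vitro transcription/translation (PURExpress), about 100-200 nM. Bound TF was detected with fluorescent anti-GST. Each ungapped 8-mer (which stands for itself and its reverse complement) is scored by the PBM enrichment score (E-score), a modified Wilcoxon-Mann-Whitney statistic from -0.5 to +0.5, computed with the Universal PBM Analysis Suite. Scale: above 0.35 generally sequence-specific binding.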

| Sequence | PBM E-score |
| --- | --- |
| AGTCTGCC | -0.219 |
| AAGACTTA | -0.0811 |
| AACCGAAA | 0.279 |
| GGTCCCAA | 0.0405 |
| CGACTGGA | -0.193 |
| CCATATGG | 0.0922 |
| AAGCAGGA | -0.00928 |
| GGCCTTAA | 0.319 |
| TCTGCCAA | -0.0873 |
| TACCGGTA | 0.355 |
| GGGCTGTA | -0.228 |
| AATGCGGA | -0.165 |
| AGACGATA | 0.0346 |
| CTGAGTCA | -0.153 |
| AACCAAGT | 0.271 |
| ATGAGAGA | -0.0163 |
| ATGTGACC | 0.268 |
| AGCTAGAT | -0.0318 |
| GGCCGTAA | 0.169 |
| ATAGGAGA | -0.253 |
| CCCCTTGA | 0.119 |
| TAGGTTCA | 0.175 |
| CGTCGGTC | -0.15 |
| AAGTGTCG | -0.00573 |
| ATCCACAC | 0.0343 |

| Sequence | PBM E-score |
| --- | --- |
| TACTTCCA | -0.0294 |
| GAGCACGA | -0.0755 |
| CGCGCTAG | -0.0302 |
| ACTAATCG | 0.0272 |
| GATGATCA | 0.0767 |
| GCCATACA | 0.135 |
| ACTAGGGG | -0.0537 |
| TGCCTACA | -0.254 |
| CGTCGTGC | -0.039 |
| AGGTATAA | 0.317 |
| GTGGTTAA | 0.406 |
| GCGGGGAC | -0.0999 |
| AATGTAAA | 0.159 |
| GTTAGCTA | -0.0983 |
| GTTAAGCA | 0.139 |
| CCGGAATA | 0.0339 |
| ATCAAATG | -0.0295 |
| GCAGACAC | -0.0371 |
| AGAATGCA | -0.0612 |
| CGGCATGC | -0.02 |
| CGAAAGCA | -0.0457 |
| CATTGTCA | 0.0486 |
| GACTTCTC | -0.184 |
| ATAGGGTC | 0.272 |
| AGGTAGAC | 0.18 |

| Sequence | PBM E-score |
| --- | --- |
| ACCATTAC | 0.241 |
| CCAACCCC | 0.224 |
| CAACGTGG | -0.00609 |
| TGCACCCA | -0.0158 |
| ATTCACTA | 0.0664 |
| GAGCGGAC | -0.34 |
| TATATCGA | 0.0316 |
| GATGTGGC | -0.153 |
| CTCGCGTA | -0.00405 |
| CCAGGACC | 0.0792 |
| GTGTACCA | 0.0904 |
| CGTAAGAC | -0.0865 |
| AAAGCCCT | -0.194 |
| GCGTCCCA | 0.0581 |
| TAGTATAA | 0.242 |
| ATCTGGGG | -0.155 |
| TACGCAGA | -0.0445 |
| TGAAACAA | 0.168 |
| AACCTCCG | 0.182 |
| CGAGGCCC | -0.14 |
| GGACAACC | 0.178 |
| ATCCATGC | -0.164 |
| CCAACGTA | 0.0537 |
| CCCTGAGA | -0.00467 |
| ACTGTGCC | -0.0879 |

| Sequence | PBM E-score |
| --- | --- |
| AAGATCCG | -0.306 |
| GGTTTAGA | 0.0494 |
| CTAACGAC | -0.0559 |
| AACACTAG | 0.00938 |
| ACGTGTAT | -0.152 |
| ATACGGCA | 0.0784 |
| CCGCGCTA | 0.067 |
| AATTGCAT | -0.0714 |
| ATCCTCTG | -0.0582 |
| CTAGATAA | 0.141 |
| CGAAGTAA | -0.0171 |
| ATGGCCCC | 0.12 |
| GCGATACA | -0.119 |
| ACATCTGA | -0.168 |
| ATATCAAT | 0.0604 |
| CAGAATTA | -0.189 |
| CAGTGGCA | -0.0724 |
| AGGGATGA | -0.195 |
| ACAAATGT | 0.161 |
| GAGGAAGA | -0.174 |
| CAGCAAGG | 0.101 |
| GTTCCATA | 0.0649 |
| TTCCAAAA | 0.144 |
| AACGACTG | 0.0117 |
| CGCGGGTA | 0.207 |

| Sequence | PBM E-score |
| --- | --- |
| ATACTAGA | 0.222 |
| CACCTACG | -0.273 |
| AGCTGCAT | -0.302 |
| AGTAGGAT | -0.181 |
| AAATTTCC | -0.0322 |
| ATGAGTTA | 0.133 |
| ATTGTGCC | -0.0584 |
| AGTGGTAG | 0.00106 |
| CAAAGTCG | -0.148 |
| GCGCGAAC | 0.00099 |
| ATGGTAGG | 0.0302 |
| CAGTACGA | 0.16 |
| CTAGATTA | 0.0484 |
| ACCGAAAC | 0.179 |
| TCCAACGA | -0.166 |
| CTTAGGGC | 0.0876 |
| AACGGGAT | -0.201 |
| CTATAAAC | 0.00765 |
| CTACGCCC | -0.139 |
| TAGTTCGA | -0.00397 |
| ACCCTTTG | 0.345 |
| AGTAGGGC | -0.0911 |
| CCACCAGG | 0.0565 |
| CGTTTTAC | -0.0753 |
| GTGAGTAA | 0.00798 |

| Sequence | PBM E-score |
| --- | --- |
| GTATAATA | 0.236 |
| ATTGATTA | 0.15 |
| ATTAAATC | 0.127 |
| ACGTCGCC | -0.193 |
| ACCGGGGG | -0.112 |
| GTCCTAAA | 0.116 |
| TACAGGCA | -0.214 |
| GTGTACAC | -0.0296 |
| CGTGTTAC | -0.0928 |
| AGGGCATA | -0.0988 |
| AGCCAGAG | -0.133 |
| GACGTAGA | -0.288 |
| CAATGTAG | -0.0257 |
| AGGTCACC | 0.37 |
| ACCCAGCT | -0.126 |
| AGATCATG | 0.105 |
| ACGCCGGG | -0.27 |
| AAGTGCAC | -0.0219 |
| CCTGTCTC | -0.125 |
| AATAATAC | 0.195 |
| ACACGCTA | -0.194 |
| GCGACTTA | -0.34 |
| AGTCATGA | 0.0992 |
| CTCCGTAC | -0.153 |
| CGATAAAG | -0.032 |

| Sequence | PBM E-score |
| --- | --- |
| AGTCATTA | -0.17 |
| AGGACTGA | -0.271 |
| CGCTAAGC | -0.109 |
| ACAGAGAC | -0.0117 |
| ACACTCGC | -0.0732 |
| CGGTGGTA | 0.0926 |
| GTAGGTCA | 0.0322 |
| GACATCCA | -0.152 |
| GAGTTGGA | -0.0415 |
| GAGGCAGC | -0.19 |
| GCCAATCA | -0.309 |
| ACCTGCAC | 0.0167 |
| GGGGGAAC | -0.33 |
| CATATCGC | -0.075 |
| GGTTACAC | 0.403 |
| GAAATTGC | -0.0286 |
| CCCGAGAC | 0.0124 |
| AAACCACG | -0.0205 |
| ATTTGACG | -0.00957 |
| GCAACTCC | -0.0898 |
| CCTCCCTC | -0.0502 |
| ATCAGATG | -0.17 |
